Experimental data as given in the supplement of paper PMC10126150.
Sequences with one replicate were seen in a single cluster, so their values are uncertain.

tested on: ATP; assay: switch fluorescence ratio, 500 uM ATP over buffer (Cy3 cluster intensity, sum of 5 cycles each) (fold (ratio)); higher = stronger signal-on switching upon ATP binding; sequences stand for … in TCGTCGGCAGCGTCAGATGTGTATAAGAGACAGTTTTTTTTTTTTTTTTTTTTTTTTT…TC; conditions: aptamer strand: ATP DNA aptamer (quencher-CACCTGGGGGAGTATTGCGGAGGAAGG + anchor), 100 nM annealed; ATP concentration: 500 uM; one replicate
Summary of the method: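 After annealing to 100 nM quencher-labelled ATP aptamer, Cy3-labelled switching-strand clusters on a modified Illumina MiSeq flow-cell were imaged in selection buffer. A second image followed after 15 min with 500 uM ATP at 22 °C, and five such buffer/ATP cycles were done, each separated by NaOH stripping and re-annealing. The fluorescence ratio, averaged per switch-domain sequence, is summed target-cycle over summed buffer-cycle Cy3 intensity per cluster, with clusters outside 100-1000 RFU excluded.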
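Note: ATP exposure 15 min at 22 °C before imaging.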

**Q.** How did the switch fluorescence ratio turn out when TACATACCCT was run?
**A.** Its switch fluorescence ratio is 1.06.

**Q.** Which switch fluorescence ratio does the source give for TACATACTGT here?
**A.** The switch fluorescence ratio was 1.4.

**Q.** TACATCGAAC was tested. Which switch fluorescence ratio did it give?
**A.** The switch fluorescence ratio was 1.06.

**Q.** TACATCGGCC was tested. Which switch fluorescence ratio did it give?
**A.** The switch fluorescence ratio was 1.03.

**Q.** Which switch fluorescence ratio does the source give for TACATCTACG here?
**A.** The switch fluorescence ratio was 1.28.

**Q.** For TACATCTAG, which switch fluorescence ratio is on record?
**A.** Its switch fluorescence ratio is 0.967.

**Q.** How did the switch fluorescence ratio turn out when TACATGAGCT was run?
**A.** The switch fluorescence ratio was 1.06.

**Q.** TACATGTCTA was tested. Which switch fluorescence ratio did it give?
**A.** The switch fluorescence ratio was 1.03.

**Q.** Which switch fluorescence ratio does the source give for TACATGTGAA here?
**A.** The switch fluorescence ratio was 1.03.

**Q.** How did the switch fluorescence ratio turn out when TACATGTGT was run?
**A.** Its switch fluorescence ratio is 0.978.

**Q.** For TACATGTTGC, which switch fluorescence ratio is on record?
**A.** Its switch fluorescence ratio is 0.965.

**Q.** Which switch fluorescence ratio does the source give for TACATTGCTT here?
**A.** Its switch fluorescence ratio is 0.981.

**Q.** With TACCAAACCG as the sequence, how does the switch fluorescence ratio read?
**A.** Its switch fluorescence ratio is 1.15.

**Q.** TACCAACCTA was tested. Which switch fluorescence ratio did it give?
**A.** Its switch fluorescence ratio is 1.11.

**Q.** With TACCACCGTG as the sequence, how does the switch fluorescence ratio read?
**A.** The switch fluorescence ratio was 1.05.

**Q.** For TACCAGAAAT, which switch fluorescence ratio is on record?
**A.** The switch fluorescence ratio was 1.03.

**Q.** For TACCATCAAG, which switch fluorescence ratio is on record?
**A.** Its switch fluorescence ratio is 1.03.

**Q.** With TACCATGCGT as the sequence, how does the switch fluorescence ratio read?
**A.** The switch fluorescence ratio was 1.03.

**Q.** Which switch fluorescence ratio does the source give for TACCCACCGA here?
**A.** Its switch fluorescence ratio is 1.34.

**Q.** With TACCCGAAAA as the sequence, how does the switch fluorescence ratio read?
**A.** The switch fluorescence ratio was 2.11.

**Q.** TACCCGATCT was tested. Which switch fluorescence ratio did it give?
**A.** Its switch fluorescence ratio is 1.06.

**Q.** TACCCTAGGT was tested. Which switch fluorescence ratio did it give?
**A.** The switch fluorescence ratio was 1.11.

**Q.** With TACCGCACTT as the sequence, how does the switch fluorescence ratio read?
**A.** Its switch fluorescence ratio is 2.79.

**Q.** For TACCGCAGGA, which switch fluorescence ratio is on record?
**A.** The switch fluorescence ratio was 2.1.

**Q.** Which switch fluorescence ratio does the source give for TACCGGACCT here?
**A.** The switch fluorescence ratio was 1.08.

**Q.** For TACCGGCCCA, which switch fluorescence ratio is on record?
**A.** The switch fluorescence ratio was 1.03.

**Q.** With TACCGTCGGT as the sequence, how does the switch fluorescence ratio read?
**A.** Its switch fluorescence ratio is 1.01.

**Q.** TACCTCTATA was tested. Which switch fluorescence ratio did it give?
**A.** The switch fluorescence ratio was 1.09.

**Q.** With TACCTTTCAG as the sequence, how does the switch fluorescence ratio read?
**A.** Its switch fluorescence ratio is 1.09.

**Q.** How did the switch fluorescence ratio turn out when TACGAACTT was run?
**A.** The switch fluorescence ratio was 1.41.

**Q.** With TACGAATGTA as the sequence, how does the switch fluorescence ratio read?
**A.** Its switch fluorescence ratio is 0.961.

**Q.** How did the switch fluorescence ratio turn out when TACGACACTC was run?
**A.** Its switch fluorescence ratio is 1.47.

**Q.** Which switch fluorescence ratio does the source give for TACGACCGCC here?
**A.** Its switch fluorescence ratio is 1.78.

**Q.** For TACGACCTGT, which switch fluorescence ratio is on record?
**A.** The switch fluorescence ratio was 1.05.

**Q.** For TACGACTTCT, which switch fluorescence ratio is on record?
**A.** The switch fluorescence ratio was 0.97.

**Q.** TACGAGTGGG was tested. Which switch fluorescence ratio did it give?
**A.** Its switch fluorescence ratio is 0.998.

**Q.** With TACGAGTTGG as the sequence, how does the switch fluorescence ratio read?
**A.** The switch fluorescence ratio was 1.05.

**Q.** TACGATGAAA was tested. Which switch fluorescence ratio did it give?
**A.** The switch fluorescence ratio was 0.98.

**Q.** For TACGATGGGG, which switch fluorescence ratio is on record?
**A.** Its switch fluorescence ratio is 1.03.

**Q.** With TACGATTTGT as the sequence, how does the switch fluorescence ratio read?
**A.** Its switch fluorescence ratio is 1.03.

**Q.** Which switch fluorescence ratio does the source give for TACGCCCATC here?
**A.** The switch fluorescence ratio was 1.17.

**Q.** How did the switch fluorescence ratio turn out when TACGCGCCCG was run?
**A.** The switch fluorescence ratio was 1.02.

**Q.** For TACGCGGGCG, which switch fluorescence ratio is on record?
**A.** The switch fluorescence ratio was 1.02.

**Q.** With TACGCTCGGA as the sequence, how does the switch fluorescence ratio read?
**A.** Its switch fluorescence ratio is 1.02.

**Q.** TACGGAAACA was tested. Which switch fluorescence ratio did it give?
**A.** The switch fluorescence ratio was 1.17.

**Q.** How did the switch fluorescence ratio turn out when TACGGACAGC was run?
**A.** Its switch fluorescence ratio is 1.41.

**Q.** How did the switch fluorescence ratio turn out when TACGGACTCA was run?
**A.** Its switch fluorescence ratio is 1.34.

**Q.** TACGGAGAGG was tested. Which switch fluorescence ratio did it give?
**A.** The switch fluorescence ratio was 1.07.

**Q.** How did the switch fluorescence ratio turn out when TACGGATTTG was run?
**A.** Its switch fluorescence ratio is 1.01.

**Q.** TACGGCCGGG was tested. Which switch fluorescence ratio did it give?
**A.** The switch fluorescence ratio was 1.

**Q.** With TACGGGCTGC as the sequence, how does the switch fluorescence ratio read?
**A.** The switch fluorescence ratio was 1.01.

**Q.** With TACGGGTTGG as the sequence, how does the switch fluorescence ratio read?
**A.** The switch fluorescence ratio was 0.979.

**Q.** How did the switch fluorescence ratio turn out when TACGGTTCT was run?
**A.** Its switch fluorescence ratio is 1.01.

**Q.** TACGTAAAGT was tested. Which switch fluorescence ratio did it give?
**A.** Its switch fluorescence ratio is 1.03.

**Q.** For TACGTAATGG, which switch fluorescence ratio is on record?
**A.** The switch fluorescence ratio was 1.48.

**Q.** How did the switch fluorescence ratio turn out when TACGTACTGT was run?
**A.** Its switch fluorescence ratio is 1.51.

**Q.** With TACGTATCTC as the sequence, how does the switch fluorescence ratio read?
**A.** Its switch fluorescence ratio is 1.18.

**Q.** Which switch fluorescence ratio does the source give for TACGTCGACG here?
**A.** The switch fluorescence ratio was 0.997.

**Q.** TACGTCGTTT was tested. Which switch fluorescence ratio did it give?
**A.** Its switch fluorescence ratio is 0.951.

**Q.** Which switch fluorescence ratio does the source give for TACGTGCGGA here?
**A.** Its switch fluorescence ratio is 1.01.

**Q.** TACGTTCGGC was tested. Which switch fluorescence ratio did it give?
**A.** Its switch fluorescence ratio is 1.04.

**Q.** How did the switch fluorescence ratio turn out when TACGTTTGAA was run?
**A.** The switch fluorescence ratio was 1.02.

**Q.** How did the switch fluorescence ratio turn out when TACGTTTTGG was run?
**A.** The switch fluorescence ratio was 0.998.

**Q.** With TACTACATGA as the sequence, how does the switch fluorescence ratio read?
**A.** The switch fluorescence ratio was 1.07.

**Q.** For TACTACGCTT, which switch fluorescence ratio is on record?
**A.** The switch fluorescence ratio was 3.84.

**Q.** With TACTACTGTT as the sequence, how does the switch fluorescence ratio read?
**A.** The switch fluorescence ratio was 1.06.

**Q.** Which switch fluorescence ratio does the source give for TACTAGTCCT here?
**A.** Its switch fluorescence ratio is 1.02.

**Q.** How did the switch fluorescence ratio turn out when TACTAGTTGC was run?
**A.** The switch fluorescence ratio was 0.997.

**Q.** Which switch fluorescence ratio does the source give for TACTCACACG here?
**A.** Its switch fluorescence ratio is 1.3.

**Q.** TACTCTGACG was tested. Which switch fluorescence ratio did it give?
**A.** Its switch fluorescence ratio is 1.03.

**Q.** TACTCTGCGG was tested. Which switch fluorescence ratio did it give?
**A.** The switch fluorescence ratio was 2.24.

**Q.** How did the switch fluorescence ratio turn out when TACTGACTTT was run?
**A.** Its switch fluorescence ratio is 1.07.

**Q.** How did the switch fluorescence ratio turn out when TACTGAGCCC was run?
**A.** The switch fluorescence ratio was 1.03.

**Q.** For TACTGATGTC, which switch fluorescence ratio is on record?
**A.** The switch fluorescence ratio was 1.08.

**Q.** Which switch fluorescence ratio does the source give for TACTGCCGG here?
**A.** Its switch fluorescence ratio is 1.1.

**Q.** TACTGG was tested. Which switch fluorescence ratio did it give?
**A.** Its switch fluorescence ratio is 1.04.

**Q.** How did the switch fluorescence ratio turn out when TACTGGGTCT was run?
**A.** The switch fluorescence ratio was 0.979.

**Q.** How did the switch fluorescence ratio turn out when TACTGTTACT was run?
**A.** Its switch fluorescence ratio is 1.32.

**Q.** Which switch fluorescence ratio does the source give for TACTGTTCGT here?
**A.** The switch fluorescence ratio was 1.01.

**Q.** With TACTGTTGAG as the sequence, how does the switch fluorescence ratio read?
**A.** Its switch fluorescence ratio is 0.977.

**Q.** With TACTTAGCAG as the sequence, how does the switch fluorescence ratio read?
**A.** Its switch fluorescence ratio is 1.1.

**Q.** Which switch fluorescence ratio does the source give for TACTTCACTA here?
**A.** Its switch fluorescence ratio is 1.29.

**Q.** TACTTCGTGT was tested. Which switch fluorescence ratio did it give?
**A.** Its switch fluorescence ratio is 1.05.

**Q.** With TACTTGAGCC as the sequence, how does the switch fluorescence ratio read?
**A.** The switch fluorescence ratio was 0.994.

**Q.** How did the switch fluorescence ratio turn out when TACTTGCCT was run?
**A.** The switch fluorescence ratio was 1.07.

**Q.** How did the switch fluorescence ratio turn out when TACTTGCTA was run?
**A.** The switch fluorescence ratio was 0.988.

**Q.** TACTTTCGCT was tested. Which switch fluorescence ratio did it give?
**A.** The switch fluorescence ratio was 0.994.

**Q.** With TAGAAAAAAG as the sequence, how does the switch fluorescence ratio read?
**A.** Its switch fluorescence ratio is 0.991.

**Q.** Which switch fluorescence ratio does the source give for TAGAACGAT here?
**A.** The switch fluorescence ratio was 0.994.

**Q.** Which switch fluorescence ratio does the source give for TAGAAGATAC here?
**A.** Its switch fluorescence ratio is 1.86.

**Q.** TAGAAGTTTC was tested. Which switch fluorescence ratio did it give?
**A.** The switch fluorescence ratio was 0.98.

**Q.** TAGAATA was tested. Which switch fluorescence ratio did it give?
**A.** The switch fluorescence ratio was 1.

**Q.** For TAGAATTCCA, which switch fluorescence ratio is on record?
**A.** Its switch fluorescence ratio is 1.04.

**Q.** How did the switch fluorescence ratio turn out when TAGACCTAGA was run?
**A.** Its switch fluorescence ratio is 0.977.

**Q.** How did the switch fluorescence ratio turn out when TAGACGCGCC was run?
**A.** Its switch fluorescence ratio is 0.982.

**Q.** TAGACGGCAG was tested. Which switch fluorescence ratio did it give?
**A.** Its switch fluorescence ratio is 1.03.

**Q.** For TAGACGTAGT, which switch fluorescence ratio is on record?
**A.** The switch fluorescence ratio was 1.04.

**Q.** TAGAGAAGGT was tested. Which switch fluorescence ratio did it give?
**A.** Its switch fluorescence ratio is 1.01.

**Q.** For TAGAGAGAGC, which switch fluorescence ratio is on record?
**A.** The switch fluorescence ratio was 1.07.

**Q.** Which switch fluorescence ratio does the source give for TAGAGAGTCG here?
**A.** Its switch fluorescence ratio is 1.01.
